Source: PubChem BioAssay AID904 (National Center for Advancing Translational Sciences (NCATS), 2007)
About 530 (0.96%) of roughly 55,000 compounds were called active. This list was built around the results that the source calls inconclusive (neither active nor inactive); the mix of calls is not that of the screen. Calls come from the whole dose curve; as a rule, active = well fitted cell-killing curve with a large enough effect; inconclusive = small, poorly fitted or top-dose-only effect; inactive = no such curve, though single readings can be large or run the other way. A potency beside an inconclusive call is a rough fit, not a confirmed value.

experiment: qHTS Screen for Compounds that Selectively Target Cancer Cells with p53 Mutations: Cytotoxicity of p53 Null Cells at the Nonpermissive Temperature; settings: H1299 p53-null (neo) cells, 39C, ATPlite viability, 24 h; activity, negative = cell killing: at 46.1 µM (top of the series); note: nearly all actives have a fitted effect of over 50% in size;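 for activity, negative = cell killing: 0% = DMSO only and -100% = full killing by 100 µM tamoxifen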
Outline: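 Concentration-response (up to 46 uM) was run for 24 h at the nonpermissive 39C on H1299-p53A138V or H1299-neo cells. ATP content was measured with ATPlite luminescence. AC50 values were Hill-modeled after normalizing between DMSO and 100 uM tamoxifen killing.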
Potency is the fitted concentration of half-maximal effect; tags give direction and shape of the fitted curve.

Compound	activity, negative = cell killing	Potency
CCC(=O)Nc1ccccc1-c1nc2ccccc2n(C(C)C(=O)Nc2ccc(OC)cc2)c1=O (stereo not drawn)	inactive: 5.19%	–
COc1ccccc1C(=O)Nc1cc(-c2ccc(C)cc2)no1	–	inconclusive: 12.6 µM [cytotoxic, single point]
Cc1ccccc1Cn1c(CN2CCN(c3cc(Cl)ccc3C)CC2)nc2c1c(=O)[nH]c(=O)n2C	–	inconclusive: 31.6 µM [cytotoxic, single point]
CC(=O)Nc1cc(-c2ccccc2)nn1Cc1cccc(Cl)c1	–	inconclusive: 10 µM [cytotoxic, partial curve]
COc1cc(OC)c(NS(=O)(=O)c2ccc3c(c2)NC(=O)CCS3)cc1Cl	inactive: -15.6%	–
CCOc1ccc(NC(=O)Cn2nnc(C(=O)Nc3ccc(OCC)cc3)c2N)cc1	–	inconclusive: 10 µM [cytotoxic, partial curve, poor fit]
Cc1c(-c2nsc(NC(=O)c3cccs3)n2)nnn1-c1ccc(Br)cc1	–	inconclusive: 12.6 µM [cytotoxic, single point]
Cc1ccc(-c2c(C)n3c4c(=O)n(C)c(=O)n(C)c4nc3n2-c2cccc(O)c2)cc1	–	inconclusive: 31.6 µM [cytotoxic, single point]
O=C(O)Cc1sc(Nc2ccccc2Cl)nc1-c1ccccc1	–	inconclusive: 15.8 µM [cytotoxic, partial curve]
Cc1ccc(Cl)cc1NC(=O)CSc1ccc(C(=O)O)cn1	–	inconclusive: 0.0126 µM [cytotoxic, full curve, poor fit]
Cc1ccc(-c2nc3scc(CCNS(=O)(=O)c4ccc(F)c(C)c4)n3n2)cc1	inactive: 20%	–
CCC1CCCCN1CCCNC(=O)c1ccc2c(c1)N(Cc1ccccc1)C(=O)c1ccccc1S2(=O)=O (stereo not drawn)	inactive: -22.1%	–
O=C(Nc1ccc2nc(SCc3ccccc3)sc2c1)c1ccccc1F	inactive: -15.9%	–
Cc1cc2nn(-c3ccc(F)cc3)nc2cc1NC(=O)c1cccc2ccccc12	–	inconclusive: 0.631 µM [cytotoxic, full curve, poor fit]
CCCC(=O)n1nc(-c2ccco2)nc1NCc1ccccc1Cl	–	inconclusive: 35.5 µM [cytotoxic, single point]
COc1ccc(NC(=O)CN(c2ccc(C)cc2)S(=O)(=O)c2cccc3nonc23)cc1OC	–	inconclusive: 0.0056 µM [cytotoxic, full curve, poor fit]
Cn1cc(C(=O)N2CCN(c3cccc(C(F)(F)F)c3)CC2)c2c3ccccc3n(C)c2c1=O	–	inconclusive: 31.6 µM [cytotoxic, single point]
COc1ccc(Cl)cc1NC(=O)Cn1c(=O)n(CCC(=O)NCc2ccc3c(c2)OCO3)c(=O)c2ccccc21	–	inconclusive: 3.16 µM [cytotoxic, single point]
Cc1ccccc1NC(=O)Cn1c(=O)n(CC2CCC(C(=O)NCCc3ccccc3)CC2)c(=O)c2ccccc21 (stereo not drawn)	–	inconclusive: 25.1 µM [cytotoxic, single point]
CSc1ccc(CNC(=O)c2ccc(NC(=O)c3nsc4ccccc34)cc2)cc1	–	inconclusive: 12.6 µM [cytotoxic, partial curve]
COc1cccc(N2CCN(C(=O)C3CCN(S(=O)(=O)c4ccc5c(c4)oc(=O)n5C)CC3)CC2)c1	inactive: 10.7%	–

Compound	activity, negative = cell killing	Potency
COc1ccc2c(c1)CC(C(=O)NCCCN1CCN(c3ccc(F)cc3)CC1)CO2 (stereo not drawn)	–	inconclusive: 0.224 µM [cytotoxic, full curve]
COc1ccc(NC(=O)c2cccn2-c2nnc(N3CCCCC3)s2)cc1	–	inconclusive: 15.8 µM [cytotoxic, single point]
O=C(CN1C(=O)COc2ccc(S(=O)(=O)N3CCCCCC3)cc21)NCc1ccc(F)cc1	–	inconclusive: 0.631 µM [cytotoxic, full curve, poor fit]
CCc1cccc(C)c1NC(=O)CSc1nnc(CC)n2c1cc1occc12	–	inconclusive: 0.794 µM [cytotoxic, full curve, poor fit]
COc1ccc(F)cc1S(=O)(=O)NCCc1sc2nc(-c3ccc(F)cc3)nn2c1C	–	inconclusive: 0.005 µM [cytotoxic, full curve, poor fit]
CC(C)c1ccc(S(=O)(=O)NCc2ccc3c(c2)CCN3C(=O)c2ccccc2)cc1	–	inconclusive: 22.4 µM [cytotoxic, partial curve]
Cn1nc(-c2ccc(C(=O)Nc3ccc(F)cc3)cc2)c2ccccc2c1=O	–	inconclusive: 31.6 µM [cytotoxic, single point]
Cc1ccc(-c2nc3cccnc3s2)cc1NC(=O)C(C)C	inactive: 8.49%	–
Cc1ccc(C(C)C)c(OCC(=O)Nc2cccc(NC(=O)c3ccco3)c2)c1	–	inconclusive: 22.4 µM [cytotoxic, single point]
Cc1ccc(NCc2cccn2-c2nnc(N3CCC(C(=O)NC(C)C)CC3)s2)cc1	inactive: -0.135%	–
CCCS(=O)(=O)Nc1cc(-c2cn3cccc(C)c3n2)ccc1C	–	inconclusive: 20 µM [cytotoxic, single point]
Cc1ccc(CNC(=O)C2CCCN(S(=O)(=O)c3ccc4c(c3)oc(=O)n4C)C2)cc1 (stereo not drawn)	–	inconclusive: 0.316 µM [cytotoxic, partial curve]
Cc1c(NC(=O)c2ccc(OC(C)C)cc2)cccc1-c1nc2ncccc2o1	–	inconclusive: 31.6 µM [cytotoxic, single point]
CCOc1ccccc1/C=C/c1onc(C)c1S(=O)(=O)N1CCC(C(=O)N(CC)CC)CC1	inactive: 10.1%	–
CCC(CC)c1nn2c(=O)cc(COc3ccc(NC(=O)c4ccccc4Cl)cc3)nc2s1	–	inconclusive: 3.16 µM [cytotoxic, partial curve]
CCN(CC)S(=O)(=O)c1nnc(NC(=O)COc2ccccc2Cl)s1	–	inconclusive: 31.6 µM [cytotoxic, single point]
COC(=O)c1c(-c2ccc(Cl)cc2)noc1N1CCN(c2ccc(OC)cc2)CC1	–	inconclusive: 0.005 µM [cytotoxic, full curve, poor fit]
Cc1ccc(N2CC(C(=O)Nc3ccc(Cl)cc3Cl)CC2=O)cc1 (stereo not drawn)	inconclusive: -30.1% [cytotoxic]	–
COc1ccc2nc(NC(=O)c3cc(C)oc3C)sc2c1	–	inconclusive: 12.6 µM [cytotoxic, partial curve, poor fit]
COC(=O)c1ccc(NC(=O)CCc2c(C)nc3c(c2C)c(=O)n(C)c(=O)n3C)cc1	inactive: 5.15%	–
CCC(Oc1ccc(F)cc1)C(=O)Nc1nc(-c2ccc(F)cc2)ns1 (stereo not drawn)	–	inconclusive: 14.1 µM [cytotoxic, partial curve]

Compound	activity, negative = cell killing	Potency
C=CCc1ccccc1OCC(O)CN1CCN(c2ccccc2)CC1 (stereo not drawn)	–	inconclusive: 17.8 µM [cytotoxic, single point]
Cc1ccc(CNC(=O)Cn2cc(S(=O)(=O)Cc3ccccc3F)c3ccccc32)cc1	–	inconclusive: 22.4 µM [cytotoxic, single point]
O=C(NCc1ccccc1Cl)c1cc2ccccc2o1	–	inconclusive: 35.5 µM [cytotoxic, single point]
CC1=Nc2cc(C(=O)NC3CCCC3)ccc2Sc2ccc(C)cc21	–	inconclusive: 5.01 µM [cytotoxic, partial curve]
COc1ccc(CCNC(=O)c2cccc(-n3c(C)nc4cccnc43)c2)cc1OC	–	inconclusive: 0.0794 µM [cytotoxic, full curve, poor fit]
COc1ccc(Cl)cc1NC(=O)c1cc2ccc3ccc(C)[nH]c3c2n1	–	inconclusive: 7.94 µM [cytotoxic, partial curve]
Cc1cccc(CNC(=O)CCCN2C(=O)CCn3nc(-c4cn(C)c5ccccc45)cc32)c1	–	inconclusive: 1.58 µM [cytotoxic, partial curve, poor fit]
CCC(C)NC(=O)Cn1c(=O)n(Cc2ccc(C(=O)NCc3ccccc3OC)cc2)c(=O)c2ccccc21 (stereo not drawn)	–	inconclusive: 0.794 µM [cytotoxic, single point]
Cn1c(=O)n(C/C=C/c2ccccc2)c(=O)c2c1nc1n2CCN1c1ccc(Cl)cc1	–	inconclusive: 22.4 µM [cytotoxic, single point]
Cc1oc(-c2cccc(Cl)c2)nc1CN1CCCC(C(=O)N2CCN(c3ccc(F)cc3)CC2)C1 (stereo not drawn)	–	inconclusive: 25.1 µM [cytotoxic, single point]
COc1ccc(-c2nc3c4ccccc4n(CC(=O)N4CCN(c5ccc(F)cc5)CC4)c(=O)n3n2)cc1	inactive: -14%	–
Cc1c(CNC2CCCCC2)c(C(=O)O)c(C)n1Cc1ccc(F)cc1	inactive: -2.47%	–
O=C(Nc1noc2ccccc12)c1ccc(F)cc1	–	inconclusive: 10 µM [cytotoxic, partial curve]
CCOC(=O)CN(Cc1ccccc1)C(C(=O)NC1CCCCC1)c1ccccc1 (stereo not drawn)	–	inconclusive: 15.8 µM [cytotoxic, single point]
CCc1nnc(SCC(=O)Nc2ccc(OC)c(OC)c2)c2cc3occc3n12	–	inconclusive: 0.0063 µM [cytotoxic, full curve, poor fit]
Cc1ccccc1OCc1nnc(SCc2cc(=O)c3cc(F)ccc3[nH]2)n1C	inactive: -8.89%	–
CCCSc1ncc(Cl)c(C(=O)Nc2ccc(S(=O)(=O)N3CCCCC3C)cc2)n1 (stereo not drawn)	inactive: 1.7%	–
Cc1ccc(NS(=O)(=O)c2cn(C)c(C)n2)c(Br)c1	inactive: 2.06%	–
COCCn1c(SCc2ccccc2F)nc2c([nH]c3ccccc32)c1=O	inactive: 15.8%	–
Cc1c(NC(=O)C(C)(C)C)cccc1-c1nc2ccccc2s1	–	active: 15.8 µM
Cc1ccccc1OCC(=O)Nc1nnc(SCc2cc(=O)n3cccc(C)c3n2)s1	–	inconclusive: 0.005 µM [cytotoxic, full curve, poor fit]
